Test results published in PubChem BioAssay AID651820 (National Center for Advancing Translational Sciences (NCATS), 2012).
Where “and” joins values, the source holds several entries; their conditions need not be identical. Equal values may be shown once. Hit rate of the full screen: of about 340,000 compounds, about 12,000 (3.5%) were called active. The inconclusive results got no clear call from the source; some entries with a clear call stand among them for comparison. Calls come from the whole dose curve; as a rule, active = well fitted inhibition curve with a large enough effect; inconclusive = small, poorly fitted or top-dose-only effect, or another doubt; inactive = no such curve, though single readings can be large or run the other way. Potencies of inconclusive entries are doubtful fits and often do not repeat.

experiment: qHTS Assay for Inhibitors of Hepatitis C Virus (HCV); conditions: Huh7.5.1 HCVcc-Cre (HCVcc is cell-culture hepatitis C virus) infection, luciferase reporter, 44 h; activity change, negative = inhibition: at 41.8 µM (top of the series) unless noted
In short: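 Luciferase read-out (15 sec integration) after a 15 min room-temperature substrate step quantifies HCVcc-Cre infection. Cells, 1,000 per well, had compound added 4 h post-plating, then virus at ~0.5 moi, and were cultured 44 h.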
% is set by controls: 0 for no effect and ±100 for the full control effect; potency is the fitted concentration of half-maximal effect; tags give direction and shape of the fitted curve.

SMILES	Potency	activity change, negative = inhibition
O=C(NC1CCCc2ccccc21)C1CCN(c2nnc(-n3cccc3)s2)CC1 (stereo not given)	inconclusive: 31.6 µM [inhibitor, single point]	–
O=C(Nc1nnc(Cc2ccccc2)s1)c1ccccc1	–	inactive: 2.91%
Cc1ccc(-c2cnn(-c3cccc(C(F)(F)F)c3)c2N)cc1	active: 11.2 µM	–
O=C(NCc1ccc(F)cc1)C(c1ccccc1)c1ccccc1	–	inactive: -6.01%
CCN(C(=O)CSc1nc2cc(C(=O)OC)ccc2c(=O)n1Cc1ccco1)c1cccc(C)c1	inconclusive: 31.6 µM [inhibitor, single point]	–
Cn1c(-c2ccccc2)cnc1NCc1cc2c(cc1[N+](=O)[O-])OCO2	inconclusive: 5.62 µM [inhibitor, single point]	–
Cc1c(NC(=O)c2ccc3c4c(cccc24)CC3)c(=O)n(-c2ccccc2)n1C	inconclusive: 5.62 µM [inhibitor, single point]	–
O=c1c2cn[nH]c2nc(SCc2cc(=O)n3cc(Br)ccc3n2)n1-c1ccc(Br)cc1	inconclusive: 8.91 µM [inhibitor, partial curve]	–
CCC(C)NC(=O)C1CCN(C(=O)N(C)C)CC1 (stereo not given)	–	inactive: 14.9%
Cc1cc(NC(=O)CSc2nc(-c3ccco3)cc(C(F)(F)F)n2)no1	inconclusive: 631 nM [inhibitor, full curve] and inconclusive: 501 nM [inhibitor, full curve, poor fit]	–
COc1ccc(Cl)cc1NC(=O)CN(C)C(=O)c1cc2ccccc2cc1OC	inconclusive: 10 µM [inhibitor, single point]	–
O=C(CC(c1ccco1)C1CCCCC1=O)c1ccco1 (stereo not given)	–	inactive: 1.08%
COc1ccc(OCCOc2ccc(S(=O)(=O)N3CCCC3)cc2[N+](=O)[O-])cc1	inconclusive: 7.94 µM [inhibitor, partial curve]	–
COc1ccc(S(=O)(=O)NCc2ccccn2)cc1NC(=O)c1ccccc1F	inconclusive: 3.55 µM [inhibitor, single point]	–
Clc1ccc2nc(N3CCCCC3)[nH]c2c1	inconclusive: 8.91 µM [inhibitor, partial curve]	–
CN(C(=O)COC(=O)CNC(=O)c1cccs1)c1c(N)n(Cc2ccccc2)c(=O)[nH]c1=O	–	inactive: 6.81%
CC(C)CN1CN(Cc2ccco2)CNC1=S	–	inactive: 11.7%
COc1ccc(OC)c(NC(=O)CN(C)CC(=O)Nc2ccccc2Br)c1	inconclusive: 1.41 µM [inhibitor, full curve, poor fit]	–
NC1=NC[C@@H](Cc2ccc(O)cc2)N1CCc1cc(C(F)(F)F)cc(C(F)(F)F)c1	–	inactive: 25.5%
Cc1csc(NC(=O)c2ccc(-c3ccc(Cl)cc3Cl)o2)n1	inconclusive: 11.2 µM [inhibitor, single point]	–
C#CCOCCOCCOCCNc1nc(N2CCN(C(=O)CCCCCCCCCCNC(=O)[C@H](CO)n3cc(CCCSC)nn3)CC2)nc(N2CCN(C(=O)CCCCCCCCCCNC(=O)[C@H](CCCCN)n3cc(C[C@@H](C)CC)nn3)CC2)n1	inconclusive: 31.6 µM [inhibitor, single point]	–
O=[N+]([O-])c1ccc(OCCO)c(P(=O)(c2ccccc2)c2ccccc2)c1	–	inactive: 10%
COc1cccc(N2CCN(c3c(C#N)c(C(F)(F)F)nn3C)CC2)c1	inconclusive: 10 µM [inhibitor, partial curve]	–
COc1ccc(S(=O)(=O)Oc2ccc3c(c2)O/C(=C\c2cccnc2)C3=O)cc1	inconclusive: 17.8 µM [inhibitor, single point]	–

SMILES	Potency	activity change, negative = inhibition
C/C=C/COC(=O)c1[nH]c2c(c1C)C(=O)CC(c1ccc(N(C)C)cc1)C2 (stereo not given)	active: 5.62 µM	–
CC1(C)C/C(=N\NC(=S)Nc2ccccc2F)c2cc(O)ccc2O1	inconclusive: 31.6 µM [inhibitor, single point]	–
COc1cc2ccccc2cc1C(=O)N1CCOCC1	–	inactive: -2.47%
COc1ccc(C(=O)C2CCN(C(=O)Nc3ccc(C)cc3)CC2)cc1	inconclusive: 10 µM [inhibitor, partial curve]	–
COc1ccccc1-c1cc(C(F)(F)F)nc(NCc2ccco2)n1	inconclusive: 3.16 µM [inhibitor, single point]	–
O=C(N/N=C/c1cc(Br)ccc1O)c1ccccc1Cl	inconclusive: 3.98 µM [inhibitor, full curve]	–
COc1cc(NS(=O)(=O)c2cc(C(=O)NCCc3ccccn3)ccc2OC)cc(OC)c1	inconclusive: 14.1 µM [inhibitor, partial curve]	–
CCOC(=O)C1(Cc2cccc(F)c2)CCN(Cc2cnn(CC)c2)CC1	inconclusive: 11.2 µM [inhibitor, single point]	–
COc1cccc(NC(=O)CN(C)C(=O)C2=COCCO2)c1	–	inactive: 22.1%
CCCCCCNC(=O)CNC(=S)N(Cc1cccs1)C1CCCCC1	active: 10 µM	–
Cc1cc(C(=O)CSc2nc3ccccc3c(=O)[nH]2)c(C)n1CC1CCCO1 (stereo not given)	active: 11.2 µM	–
O=C(N/N=C/c1cccc(Br)c1)c1ccc(Cn2cc(Br)cn2)o1	inconclusive: 31.6 µM [inhibitor, partial curve, poor fit]	–
Cc1ccc(Sc2ccc(NC(=O)CCN3C(=O)NC4(CCCC4)C3=O)cc2)c(C)c1	active: 3.98 µM	–
CN(C)C(=O)Nc1ccccc1	–	inactive: 17.4%
Cc1nn(C)c(=O)n1-c1ccc(OCc2ccccc2)cc1	–	inactive: 1.55%
CCOCN(C(=O)Cn1c(CO)nc2ccccc21)c1c(C)cccc1CC	–	inactive: -3.07%
Cc1ccc(NC(=O)CN(C)C(=O)COC(=O)c2oc3ccccc3c2C)cc1	inconclusive: 11.2 µM [inhibitor, partial curve]	–
COc1ccc(OC)c(/C=C(\C)C(=O)c2c(C)cc(C)[nH]c2=O)c1	–	inactive: -19.7%
CC(C)C1/C(=N/O)CC(c2ccccc2)NC1c1ccccc1 (stereo not given)	inconclusive: 10 µM [inhibitor, partial curve]	–
CCN(c1ccccc1)S(=O)(=O)c1ccc(Oc2ccccc2C(C)=O)nc1	inconclusive: 22.4 µM [inhibitor, single point]	–
CC(C)(C)c1csc(NC(=O)c2ccc(Br)o2)n1	inconclusive: 22.4 µM [inhibitor, single point]	–
COc1cc(NC(=O)c2cccs2)c(OC)cc1NC(=O)CCC(=O)Nc1cccc2ncccc12	inconclusive: 14.1 µM [inhibitor, single point]	–
CCOC(=O)c1cc(-c2ccccc2)sc1NC(=O)C(C)Sc1nnc(N)s1 (stereo not given)	inconclusive: 31.6 µM [inhibitor, single point]	–
CCC(=O)Nc1nnc(CSCc2ccc(F)cc2)s1	inconclusive: 5.01 µM [inhibitor, single point]	–

SMILES	Potency	activity change, negative = inhibition
C[N+]1([O-])[C@@H]2Cc3cc4c(cc3[C@@H]1Cc1cc3c(cc12)OCO3)OCO4 (stereo not given in full)	–	inactive: 17.5% [at 8.37 µM]
CCOC(=O)c1c(-c2ccccc2)oc2ccc(OC(C)=O)cc12	active: 11.2 µM	–
COc1cc(OC)cc(C(=O)Nc2ccc(-c3nc4ccccc4o3)cc2)c1	inconclusive: 11.2 µM [inhibitor, single point]	–
CCOC(=O)c1c(NC(=O)C2CCCCC2)sc2c1CCN(C(C)C)C2	active: 7.94 µM	–
O=C(c1ccc(OC2CCN(C(=O)c3cccnc3)CC2)cc1)N1CCCCCC1	inconclusive: 31.6 µM [inhibitor, single point]	–
CC[C@@H]1C=C(C(=O)O)[C@H](c2ccc3c(c2)OCO3)N1S(=O)(=O)c1ccc(C)cc1	active: 31.6 µM	–
CCN1CCc2c(sc(NC(=O)c3cc4ccccc4cc3OC)c2C(N)=O)C1	active: 8.91 µM	–
O=C(/C=C/c1ccco1)Oc1cccc2cccnc12	inconclusive: 31.6 µM [inhibitor, single point]	–
COc1ccc(N2C(=O)C3C4c5ccccc5C(C=Nc5ccc(C)cc5C)(c5ccccc54)C3C2=O)cc1 (stereo not given)	inconclusive: 4.47 µM [inhibitor, partial curve]	–
O=c1c2c([nH]n1-c1ccccc1)CCSC2	–	inactive: 12.7%
O=C(CCS(=O)(=O)c1ccccc1)Nc1cccc(-c2nc3ccccc3s2)c1	inconclusive: 2.82 µM [inhibitor, single point]	–
CC(C)OCCCN(C)C1CCN(S(=O)(=O)c2csc(C(N)=O)c2)CC1	–	inactive: 16.2%
N#CC1=C(N)SC(N)=C(C#N)C1c1ccoc1	inconclusive: 15.8 µM [inhibitor, single point]	–
CC(C)n1nc(C(=O)Nc2cccc(S(=O)(=O)NCc3ccco3)c2)c2ccccc2c1=O	inconclusive: 8.91 µM [inhibitor, partial curve]	–
CC(C)(CNC(=O)c1ccc(-c2cccc(C(F)(F)F)c2)o1)N1CCOCC1	inconclusive: 31.6 µM [inhibitor, single point]	–
COc1cc(CN2CCCC(C(=O)c3ccccc3SC)C2)cc(OC)c1 (stereo not given)	active: 11.2 µM	–
COc1cc(Cl)c(C)cc1NC(=O)CSc1nnc(CN2CCCC2)o1	–	inactive: 9.24%
O=C(Nc1nnc(-c2ccc3c(c2)CCCC3)o1)c1ccccc1Cl	–	inactive: -4.71%
O=C(Nc1ccon1)c1cccc(S(=O)(=O)N2CCCCC2)c1	–	inactive: 4.81%
COC(=O)CN(c1nc(C)c(Cl)c(OC)n1)S(=O)(=O)c1ccc(C)cc1	inconclusive: 20 µM [inhibitor, single point]	–
COc1ccc(-c2nc(N3CCCCCC3)sc2C(=O)c2ccccc2)cc1	inconclusive: 5.62 µM [inhibitor, full curve]	–
COc1ccc2c(c1)CCC/C2=N/OC(=O)c1ccccc1OC	inconclusive: 22.4 µM [inhibitor, single point]	–
